# Hit rate of the full screen: of about 370,000 compounds, about 150 (0.041%) were called active. The inconclusive results got no clear call from the source; some entries with a clear call stand among them for comparison. Calls follow the shape of the dose curve; as a rule, active = well fitted inhibition curve with a large enough effect; inconclusive = small, poorly fitted or top-dose-only effect; inactive = flat fitted curve, though single readings scatter. No potency is given beside an inconclusive call; the fits are too rough.
# Target: Beta-lactamase (Escherichia coli (strain K12)) (UniProt P00811)
# Sequence of UniProt P00811 (P00811 whole entry, looked up): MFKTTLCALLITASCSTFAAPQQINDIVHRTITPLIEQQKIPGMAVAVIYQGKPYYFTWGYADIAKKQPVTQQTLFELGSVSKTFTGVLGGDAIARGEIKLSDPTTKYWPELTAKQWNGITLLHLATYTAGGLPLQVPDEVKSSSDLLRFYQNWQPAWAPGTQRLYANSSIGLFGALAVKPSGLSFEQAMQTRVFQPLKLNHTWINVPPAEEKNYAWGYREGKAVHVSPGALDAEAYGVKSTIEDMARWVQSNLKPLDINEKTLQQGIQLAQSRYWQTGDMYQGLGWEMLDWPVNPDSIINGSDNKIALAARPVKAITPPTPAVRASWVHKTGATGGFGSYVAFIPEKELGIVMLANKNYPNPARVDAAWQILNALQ
# Assay: qHTS Inhibitors of AmpC Beta-Lactamase (assay with detergent); also: nearly all actives have a fitted effect of over 25% in size
# Details: AmpC hydrolysis of nitrocefin, absorbance 480 nm, 0.01% Triton; series mostly up to 114 µM
# Method in brief: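 20 mM phosphate pH 7.0 + 0.01% (detergent screen) or 0.0001% Triton X-100; 5.3 nM AmpC reagent; cpd preinc 15 min RT; nitrocefin (800 uM stock) to start; A480 q20 s × 4 min; Activity was normalised to no-enzyme and no-compound control wells.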
# Potency is read from the fitted curve at half-maximal effect; tags tell the direction and shape of the fitted curve.
row,SMILES,Potency
1,Cc1onc(-c2ccccc2Cl)c1C(=O)OCN1C(=O)c2ccccc2C1=O,"inconclusive [inhibitor, full curve]"
2,CCN(CC)c1ccc2cc(NC(=O)CCC(=O)O)c(=O)oc2c1,"inconclusive [inhibitor, full curve]"
3,COc1ccc(CN2CN(c3ccc(Cl)cc3)C(=O)N(n3cnnc3)C2)cc1,"inconclusive [inhibitor, partial curve]"
4,COc1ccc(OC)c(NC(=O)CN(C)S(=O)(=O)c2ccc3[nH]c4c(c3c2)CCCC4)c1,inactive
5,COc1cc2cnc(-c3ccccc3)c(-c3ccc(C#N)cc3)c2cc1OC,inactive
6,COc1ccc(C2N(C(=O)N3CCOCC3)CCN2S(=O)(=O)c2ccc(C)cc2)cc1 (centres undefined),"inconclusive [inhibitor, full curve, poor fit]"
7,N#CCc1ccc(NC(=O)c2ccc(S(=O)(=O)N3CCOCC3)cc2)cc1,inactive
8,O=[N+]([O-])c1ccc2c(c1)nc1n2CCCCC1,inactive
9,CCCCNC(=O)CC1N=C2c3ccccc3N=C(SCC(=O)Nc3cccc(OC)c3)N2C1=O (centres undefined),"inconclusive [inhibitor, single point]"
10,CCOC(=O)c1ccc(NS(C)(=O)=O)cc1,"inconclusive [inhibitor, single point]"
11,Cc1cc(NC(=O)CSc2nnc(COc3ccccc3)n2Cc2ccco2)no1,inactive
12,CCOC(=O)N1c2ccccc2C=CC1OCC (centres undefined),"inconclusive [inhibitor, partial curve]"
13,CCc1c(C)[nH]c2ccccc2c1=O,"inconclusive [inhibitor, full curve, poor fit]"
14,COC(=O)CCC(=O)Nc1ccc(NC(=O)CCC(=O)OC)cc1,"inconclusive [inhibitor, full curve, poor fit]"
15,Cc1ccc(SCc2cc(=O)[nH]c(/N=C(\N)Nc3ccccc3Sc3ccccc3)n2)cc1,"inconclusive [inhibitor, single point]"
16,Cc1ccc(SC[C@H](Cc2ccccc2)N2CC[C@@H](NC(=O)OCc3ccccc3)CCC2=O)cc1,"inconclusive [inhibitor, full curve, poor fit]"
17,COc1ccc(OC)c(C(O)C2CCCCN2)c1 (centres undefined),"inconclusive [inhibitor, partial curve, poor fit]"
18,COC(=O)c1ccccc1NC(=S)N(Cc1ccc2c(c1)OCO2)Cc1cc2cc(C)ccc2[nH]c1=O,inactive
19,CCCNS(=O)(=O)c1ccc(OCC(=O)N2CCOCC2)cc1,"inconclusive [inhibitor, full curve, poor fit]"
